Our source for the switch fluorescence ratio values is the supplement of paper PMC10126150.

Sequences with one replicate were seen in a single cluster, so their values are uncertain.
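Also: ATP exposure 15 min at 22 °C before imaging.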

The data set concerns ATP. As to the kind of experiment: switch fluorescence ratio, 500 uM ATP over buffer (Cy3 cluster intensity, sum of 5 cycles each) (fold (ratio)); higher = stronger signal-on switching upon ATP binding; sequences stand for … in TCGTCGGCAGCGTCAGATGTGTATAAGAGACAGTTTTTTTTTTTTTTTTTTTTTTTTT…TC. Conditions: aptamer strand: ATP DNA aptamer (quencher-CACCTGGGGGAGTATTGCGGAGGAAGG + anchor), 100 nM annealed; ATP concentration: 500 uM; one replicate. The essentials: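 Switching-strand clusters labelled with Cy3 on a modified Illumina MiSeq flow-cell were annealed to 100 nM quencher-labelled ATP aptamer, imaged in selection buffer, and re-imaged after 15 min with 500 uM ATP at 22 °C. This was done over five cycles with NaOH stripping and re-annealing in between. The fluorescence ratio is summed target-cycle over summed buffer-cycle Cy3 intensity per cluster, averaged per switch-domain sequence, excluding clusters outside 100-1000 RFU.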
Take CAGCTCGCGC: the switch fluorescence ratio turned out to be 1.01.

For the sequence ACAGCACGGA, the switch fluorescence ratio was 1.23. The figure for TGGTAACGGG is 1.01; for AAGAAAGCGG it is 0.95. For CCAAGCGCGC, the switch fluorescence ratio worked out at 0.96.

Consider CGCGGTAAAC, for which the switch fluorescence ratio turned out to be 1.57. The figure for TCCTAAAACT is 1.04; for TCTAGCTAGG it is 1.04; for GTTGATAGGC it is 0.995. The figure for TAATCGGGAT is 0.973; for TGACTTTTTG it is 1; for AGACAGCGGG it is 1.02. The figure for ATGTGGATCT is 1; for TGTGACATG it is 0.889; for GATAACTGCG it is 1.02.

As for TGCTTGCCTA, the switch fluorescence ratio was 1.04. With GTTCACCCGA, the switch fluorescence ratio came out at 1.02.

Turning to ACGGCGAATA, the switch fluorescence ratio turned out to be 1.1. On to CGGTTAAAGA, for which the switch fluorescence ratio worked out at 1.

AAATCATTC: the switch fluorescence ratio was 0.998.

As to ATGGCGTTTG, the switch fluorescence ratio stood at 1.02. The figure for TAGTTCAATA is 0.989. With ACATCATGAC, the switch fluorescence ratio was 1.13. The figure for CCATTCGGGG is 1.05.

In the case of AGGCCCGGAA, the switch fluorescence ratio is 1.02.

As for TACTCTGTCT, the switch fluorescence ratio is 1.01. In the case of GCTTGTTTTC it was 1.01. Turning to TTAGAGAGGG, the switch fluorescence ratio was 0.966. The figure for CGAGCAACG is 1.11. Consider CTGTAGTTCG, for which the switch fluorescence ratio turned out to be 1.06. Turning to TATGGGAAA, the switch fluorescence ratio was 0.991.

For the sequence CTGGAAGCGG, the switch fluorescence ratio is 1.06. In the case of CTCGCGCGGC it was 1.49; in that of TCAGACGGGT, 0.958; in that of TTGTTGCCCA, 1.04. In the case of TCTCGATCCG it was 1.03; in that of GTAAGAAGAC, 0.937. In the case of CTCTATGCCT it was 1.03. On to GGGCAAAAAG, for which the switch fluorescence ratio was 1.01. Turning to CTGTCTGGT, the switch fluorescence ratio is 0.961. With ATCCGGAGTG, the switch fluorescence ratio stood at 1.18. In the case of TAAGATTATG it was 1.01; in that of CGGGGGATAA, 0.995.

As for GATTCATTGA, the switch fluorescence ratio turned out to be 1.01. As to CCAACCTTCT, the switch fluorescence ratio came out at 2.15.

Consider GATGGGTGGT, for which the switch fluorescence ratio stood at 1.03.

Consider GGGTTTCACC, for which the switch fluorescence ratio is 1.02.

As to TCGTGCGGTG, the switch fluorescence ratio was found to be 1.09. In the case of GTAATATTTG it was 0.979. The figure for TTTAGCCCG is 1.05. In the case of TCTTAGGTAG, the switch fluorescence ratio came out at 0.961. Turning to GTTATAAACA, the switch fluorescence ratio turned out to be 0.989.

With ATTATCCGGC, the switch fluorescence ratio turned out to be 0.999. In the case of ATCCGGG it was 0.984; in that of GGTATCTCAC, 0.995; in that of CCAGGTTCGC, 1.06.

Take GCTCCAATTG: the switch fluorescence ratio amounted to 1.09. As to ACGTCCGGGC, the switch fluorescence ratio stood at 1.05. In the case of TGATCGGTGC it was 1.16; in that of GACAGTGTAT, 1.04; in that of TGGAAGCGTG, 0.965. The figure for CGAGTCGGTC is 0.997. In the case of AACTCCCGGG it was 1.54. With ACAAAGCCCG, the switch fluorescence ratio amounted to 1.14. Turning to TGGGTGTCTC, the switch fluorescence ratio stood at 1.01. In the case of TTTCGCGTTG it was 1. The figure for CGGATAAGTA is 0.962.
